Test results reported in PubChem BioAssay AID360 (National Center for Advancing Translational Sciences (NCATS), 2006).
Hit rate of the full screen: of about 48,000 compounds, about 550 (1.1%) were called active. About 4% were inconclusive and are not listed. No stated cut-off is given here; in the data, active means potency below about 15 µM; inconclusive means mostly about 16 µM to 33 µM; inactive means weaker than that. Some of the results follow.

The compounds below were run against Lysosomal acid glucosylceramidase (Homo sapiens) (UniProt P04062) (assay: Glucocerebrosidase). Conditions: purified enzyme, resorufin glucoside fluorescence (screen aimed at inhibitors), 20 min.
UniProt P04062, sequence (P04062 whole entry, looked up): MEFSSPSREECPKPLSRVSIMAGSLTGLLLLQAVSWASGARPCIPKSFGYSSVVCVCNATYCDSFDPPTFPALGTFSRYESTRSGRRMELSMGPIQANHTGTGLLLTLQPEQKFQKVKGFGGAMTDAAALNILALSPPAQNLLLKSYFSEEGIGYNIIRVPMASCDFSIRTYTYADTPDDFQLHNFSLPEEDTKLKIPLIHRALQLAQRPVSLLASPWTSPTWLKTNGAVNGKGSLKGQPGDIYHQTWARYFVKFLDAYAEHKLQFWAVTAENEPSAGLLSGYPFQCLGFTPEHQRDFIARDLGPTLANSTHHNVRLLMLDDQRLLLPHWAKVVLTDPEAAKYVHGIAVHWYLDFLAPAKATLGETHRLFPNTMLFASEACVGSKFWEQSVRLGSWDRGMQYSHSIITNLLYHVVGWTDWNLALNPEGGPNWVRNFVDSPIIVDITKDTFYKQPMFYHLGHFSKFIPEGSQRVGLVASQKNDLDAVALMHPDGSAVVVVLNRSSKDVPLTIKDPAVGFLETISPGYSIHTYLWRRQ
Summary of the method: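 Compounds titrated against 0.2 nM normal enzyme, 30 uM resorufin beta-D-glucopyranoside substrate, citrate/phosphate buffer with taurocholate and tween-20, pH 5.9. Reaction ran 20 min at room temperature; fluorescence (Ex 548/Em 600) gave AC50.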
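Further: the screen sought inhibitors.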
Potency means the concentration at half of the fitted maximal effect.

Potency, inactive:
COCCNC(=O)C1CCC(Cn2c(=S)[nH]c3ccccc3c2=O)CC1 (stereo unspecified) > 76.9 µM
CCN(CC)c1ccc2cc(C(=O)Nc3ccc(-n4cnnn4)c(OC)c3)c(=O)oc2c1 > 76.9 µM
CCOc1ccc2c(C)c(C(=O)O)oc2c1OCC > 76.9 µM
O=C(NC1(C(F)(F)F)NC(=O)N(Cc2cccnc2)C1=O)c1cccs1 (stereo unspecified) > 76.9 µM
COc1ccc(NC(=O)CCS(=O)(=O)c2ccc(OC)cc2)cc1 > 76.9 µM
CC(=O)NCc1nc2ccccc2n1Cc1ccccc1F > 76.9 µM
CCCOC(=O)c1ccc(Oc2cn[nH]c2-c2ccc(OCC)cc2O)cc1 > 76.9 µM
Cc1cccc(-n2c(CNC(=O)c3ccc(S(=O)(=O)N4CCCC4)cc3)n[nH]c2=S)c1 > 76.9 µM
O=C(c1ccco1)N1CCN(C(=O)c2cnn3cccnc23)CC1 > 76.9 µM
COc1ccc(-c2nn(C)c(=O)c3ccccc23)cc1CNS(C)(=O)=O > 76.9 µM
CS(=O)(=O)N(CC(=O)NCc1ccc2c(c1)OCO2)c1ccc(Cl)cc1 > 76.9 µM
CC(NCC1(N2CCOCC2)CCCCC1)C(=O)N1CCc2ccccc21 (stereo unspecified) > 76.9 µM
CCN1CCN(P2(=O)C=C(c3ccccc3)OC(c3ccccc3)=C2)CC1 > 15.4 µM
CCC(C)(C)n1nnnc1C(c1cc(OC)c(OC)c(OC)c1)N1CCN(c2ccccc2)CC1 (stereo unspecified) > 76.9 µM
CC(C(=O)NCC1CCCO1)N(C(=O)c1snc(C(N)=O)c1N)c1cccc(F)c1 (stereo unspecified) > 76.9 µM
COc1ccc(OCc2nnc(SCC(N)=O)n2-c2ccccc2OC)cc1 > 76.9 µM
COc1cc(C(=O)NCc2nnc(SCC(=O)N3CCCCC3)o2)cc(OC)c1OC > 76.9 µM
COc1ccc(NC(=O)C2=C(C)Nc3ncnn3C2c2ccccc2C(F)(F)F)c(OC)c1 (stereo unspecified) > 76.9 µM
Cn1c(=O)[nH]c(=O)c2c1nc(N1CCNCC1)n2Cc1cccc2ccccc12 > 76.9 µM
CC(C)c1nnc(NC(=O)CCC(=O)N2CCN(C3CCCCC3)CC2)s1 > 76.9 µM
Cc1ccc(C)c(S(=O)(=O)Nc2ccc(S(=O)(=O)Nc3onc(C)c3C)cc2)c1 > 76.9 µM
COc1ccc(Cc2nnc(SCC(=O)N3CCN(c4ccccc4)CC3)o2)cc1 > 76.9 µM
O=S(=O)(CCc1ccccc1)/N=C/c1cccs1 > 76.9 µM
CCC(=O)Nc1ccc(-c2nc(-c3ccccc3)n(CC(=O)N3CCCCC3)n2)cc1 > 76.9 µM
O=c1[nH]n(-c2ncnc3c2cnn3-c2ccccc2)c(=O)c2ccccc12 > 76.9 µM
CCOC(=O)C(C)Oc1ccc(C2NC(=O)NC(C)=C2C(=O)Nc2ccccc2C)cc1 (stereo unspecified) > 76.9 µM
Cc1cc2nc(NC3=NCN(CCN4CCOCC4)CN3)nc(C)c2cc1C > 76.9 µM
Cn1ccnc1SCC(=O)Nc1ccc2c(c1)COC2=O > 76.9 µM
CCCCC(=O)NC1=NC(=O)C(C)(C)S1 > 76.9 µM
COc1ccc(/C=N/n2cnnc2)cc1COc1ccccn1 > 76.9 µM
Cc1nc(NC2=NCN(CCN3CCOCC3)CN2)nc2c(C)cccc12 > 76.9 µM
Cc1ccc(-n2c3c(cc(C(=O)Nc4cccc(C)n4)c2=O)C(=O)CCC3)cc1 > 76.9 µM
O=S(=O)(c1ccccc1)c1nc(-c2ccco2)oc1NCc1ccco1 > 76.9 µM
COc1ccc(CCNC(=O)CN2CCCc3ccccc32)cc1OC > 76.9 µM
Cc1nnc(SCc2ccccc2)n1N > 76.9 µM
CCOc1ccc2nc(NC(=O)c3ccc(S(=O)(=O)N4CCOCC4)cc3)sc2c1 > 76.9 µM
Cn1ncc(C#N)c1/N=C/N1CCCCC1 > 76.9 µM
COC(=O)[C@H](CCSC)NC(=O)Nc1ccc(C(C)C)cc1 > 76.9 µM
CCOC(=O)C1=C(NC#N)OC(C)=C(C)C1c1ccc(O)cc1 (stereo unspecified) > 76.9 µM
COc1ccccc1NS(=O)(=O)c1ccc(NC(=O)CCNC(=O)c2ccco2)cc1 > 76.9 µM
O=C(NC1(C(F)(F)F)NC(=O)N(C2CCCC2)C1=O)C1CC1 (stereo unspecified) > 76.9 µM
COc1ccc(-c2ccc(=O)n(Cc3cc(=O)n4ccccc4n3)n2)cc1 > 76.9 µM
Cn1c(=O)c2c(ncn2CCN(CCO)Cc2ccccc2)n(C)c1=O > 76.9 µM
O=C(CN1CCN(S(=O)(=O)c2ccccc2)CC1)Nc1cccc(C(F)(F)F)c1
O=c1oc2ccccc2cc1-c1cn2cccnc2n1 > 76.9 µM
COc1ccc(OC)c(NC(=O)CSc2nnc(CNc3ccc(C)cc3C)o2)c1 > 76.9 µM
CC1C(=O)CCC1(C(=O)O)c1ccccc1 (stereo unspecified) > 76.9 µM
O=c1[nH]c2cc3c(cc2cc1CN(Cc1nnnn1CC1CCCO1)C1CCCC1)OCO3 (stereo unspecified) > 76.9 µM
CCOC(=O)c1ccc2[nH]c(C)c(CN3CCN(C)CC3)c(=O)c2c1 > 76.9 µM
COC(=O)c1cccc(OCC(O)Cn2ccnc2)c1 (stereo unspecified) > 76.9 µM
CN1C(=O)NC(NC(=O)c2ccncc2)(C(F)(F)F)C1=O (stereo unspecified) > 76.9 µM
CC(=O)Nc1ccc(C(=O)CSc2nnc3scc(-c4ccccc4)n23)cc1 > 76.9 µM
O=C(COc1ccccc1)NCc1ccc2c(c1)OCO2 > 76.9 µM
CCn1c(SCC(N)=O)nc2c1c(=O)n(C)c(=O)n2C > 76.9 µM
Cc1cc(NC(=O)C2CC2)ncc1NC(=O)C12CC3CC(CC(C3)C1)C2 > 76.9 µM
Cc1cc2nc(NC3=NCN(Cc4ccc5c(c4)OCO5)CN3)nc(C)c2cc1C > 76.9 µM
